Experimental data published in patent publication US6835371B1 (priority 1997, dated 2004).
Like-named read-outs stand apart in the source and are kept apart here.

Columns and labels:
[1] = biological target: T1, human serotonin transporter (hSERT) (Homo sapiens, UniProt P31645); assay: cell-based
[2] = biological target: T1, human serotonin transporter (hSERT); assay: biochemical
[3] = HEK-hSERT cells, read-out: [3H]Serotonin Uptake IC50
[4] = Table 2, read-out: Reuptake [3H]5-HT (Ki ± SD)

T1 sequence (P31645 whole entry): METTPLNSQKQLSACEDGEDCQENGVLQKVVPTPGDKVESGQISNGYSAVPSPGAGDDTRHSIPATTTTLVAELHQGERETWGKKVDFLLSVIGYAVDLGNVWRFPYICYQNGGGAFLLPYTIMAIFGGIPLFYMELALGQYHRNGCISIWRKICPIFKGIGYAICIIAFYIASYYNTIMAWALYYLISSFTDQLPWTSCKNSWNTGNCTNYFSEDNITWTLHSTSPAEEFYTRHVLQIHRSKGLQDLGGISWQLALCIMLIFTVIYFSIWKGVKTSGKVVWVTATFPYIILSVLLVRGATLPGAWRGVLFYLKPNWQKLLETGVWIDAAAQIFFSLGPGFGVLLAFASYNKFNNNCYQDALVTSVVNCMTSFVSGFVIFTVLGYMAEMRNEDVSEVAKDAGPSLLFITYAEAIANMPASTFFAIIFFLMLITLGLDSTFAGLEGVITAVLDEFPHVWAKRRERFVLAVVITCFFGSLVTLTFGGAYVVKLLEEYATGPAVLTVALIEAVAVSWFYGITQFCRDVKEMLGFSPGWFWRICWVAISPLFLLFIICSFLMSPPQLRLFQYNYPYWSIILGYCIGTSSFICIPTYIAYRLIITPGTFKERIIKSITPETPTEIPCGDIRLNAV

| Structure (SMILES) | IC50 [1, 3] | IC50 [1] | other results |
| --- | --- | --- | --- |
| Fc1ccc(C(OCCCCN2CCN(c3ccccc3Cl)CC2)c2ccc(F)cc2)cc1 [Compound 31626] | 0.119 µM | – | – |
| OC1CCN(CCCCOC(c2ccc(F)cc2)c2ccc(F)cc2)CC1 [Compound 31648] | 0.314 µM | – | – |
| O=C1c2ccccc2C(=O)N1CCCCN1CCC(O)(c2ccc(Br)cc2)CC1 [Compound 31627] | 0.361 µM | – | Ki [2]: 1590 nM |
| Fc1ccc(C(OCCCCN2CCNC(c3ccccc3)C2)c2ccc(F)cc2)cc1 (stereo not drawn) [Compound 31533] | – | – | Ki [1]: 0.7 ± 0.26 µM |
| Fc1ccc(C(OCCCCN2CCN(c3ccc(Cl)cc3)CC2)c2ccc(F)cc2)cc1 [Compound 31652] | – | 0.32 µM | – |
| O=C1CN(CCCCOC(c2ccc(F)cc2)c2ccc(F)cc2)CCN1 [Compound 31524] | 5.34 µM | – | – |
| Fc1ccc(C(OCCCCN2CCN(c3cccc(C(F)(F)F)c3)CC2)c2ccc(F)cc2)cc1 [Compound 31532] | – | 3.3 µM | Ki [1]: 3.3 ± 1.3 µM; IC50 ([1]; read-out: [3H]Serotonin Uptake IC50, HEK-hSERT cells): 3.3 µM |
| Fc1ccc(C(OCCCCN2CCN(c3ccccc3F)CC2)c2ccc(F)cc2)cc1 [Compound 31526] | – | 0.192 µM | Ki [1]: 0.192 ± 0.021 µM |
| OC1(c2ccc(Cl)cc2)CCN(CCCCOC(c2ccc(F)cc2)c2ccc(F)cc2)CC1 [Compound 31625] | – | – | Ki [2]: > 10000 nM |
| OC1(c2ccc(Br)cc2)CCN(CCCCOC(c2ccc(F)cc2)c2ccc(F)cc2)CC1 [Compound 31530] | 3.07 µM | – | Ki [1, 4]: 3.07 ± 0.83 µM |
| Fc1ccc(C(OCCCCN2CCN(c3ccc(F)cc3)CC2)c2ccc(F)cc2)cc1 [Compound 31527] | – | 0.44 µM | Ki [1]: 0.44 ± 0.05 µM |
| O=c1[nH]c2ccccc2n1C1CCN(CCCCOC(c2ccc(F)cc2)c2ccc(F)cc2)CC1 [Compound 31649] | 0.57 µM | – | – |
| OC1(c2ccccc2)CCN(CCCCOC(c2ccc(F)cc2)c2ccc(F)cc2)CC1 [Compound 31531] | – | – | Ki [1, 4]: 0.136 ± 0.041 µM |
| Fc1ccc(C(OCCCCN2CCN(c3ccccc3)CC2)c2ccc(F)cc2)cc1 [Compound 31653] | – | 1.02 µM | – |
| NC(=O)C1CCCN(CCCCOC(c2ccc(F)cc2)c2ccc(F)cc2)C1 (stereo not drawn) [Compound 31628] | 0.203 µM | – | – |
| CC(=O)C1(c2ccccc2)CCN(CCCCOC(c2ccc(F)cc2)c2ccc(F)cc2)CC1 [Compound 31525] | – | – | Ki [2]: 126 nM; IC50 ([1]; HEK-hSERT cells, in μM, read-out: [3H]Serotonin Uptake IC50): > 10 µM; Ki ([1]; Table 2, bound given in μM, read-out: Reuptake [3H]5-HT (Ki ± SD)): > 10 µM |
